Values marked as one replicate rest on one cluster of the flow cell; about a third of the high ones do not repeat.
Tested on: ATP
Assay: switch fluorescence ratio, 500 uM ATP over buffer (Cy3 cluster intensity, sum of 5 cycles each) (fold (ratio)); higher = stronger signal-on switching upon ATP binding; sequences stand for … in TCGTCGGCAGCGTCAGATGTGTATAAGAGACAGTTTTTTTTTTTTTTTTTTTTTTTTT…TC
Details: aptamer strand: ATP DNA aptamer (quencher-CACCTGGGGGAGTATTGCGGAGGAAGG + anchor), 100 nM annealed; ATP concentration: 500 uM; one replicate
In short: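 After annealing to 100 nM quencher-labelled ATP aptamer, Cy3-labelled switching-strand clusters on a modified Illumina MiSeq flow-cell were imaged in selection buffer. A second image followed after 15 min with 500 uM ATP at 22 °C, and five such buffer/ATP cycles were done, each separated by NaOH stripping and re-annealing. The fluorescence ratio, averaged per switch-domain sequence, is summed target-cycle over summed buffer-cycle Cy3 intensity per cluster, with clusters outside 100-1000 RFU excluded.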
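Further: ATP exposure 15 min at 22 °C before imaging.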

| Sequence | switch fluorescence ratio |
| --- | --- |
| CAGTGTGCCA | 1.01 |
| CAGTTACCGG | 0.999 |
| CAGTTAGAAT | 0.953 |
| CAGTTATTGT | 0.939 |
| CAGTTCTCAT | 1 |
| CAGTTGCGGC | 1.03 |
| CAGTTTAAG | 1.03 |
| CAGTTTCACT | 1.01 |
| CAGTTTGCGG | 1.08 |
| CAGTTTTTGT | 0.98 |
| CATAAAAGAG | 1.02 |
| CATAACAGTG | 1 |
| CATAACCGGG | 0.999 |
| CATAACGGCC | 0.995 |
| CATAATGCG | 1.03 |
| CATACACCAT | 1.1 |
| CATACATAAA | 1 |
| CATACCAGCA | 1.04 |
| CATACCAGTT | 1.01 |
| CATACGACAA | 4.61 |
| CATACGCTTG | 1.07 |
| CATACGTGTC | 1.25 |
| CATACTGCAC | 1.71 |
| CATAGCGGCA | 1.02 |
| CATAGCTTTG | 0.98 |

| Sequence | switch fluorescence ratio |
| --- | --- |
| CATAGGCGGG | 0.977 |
| CATAGGCTTG | 0.973 |
| CATAGGGTGG | 1 |
| CATAGGTTTG | 0.972 |
| CATAGTCACG | 0.983 |
| CATAGTCTTA | 0.976 |
| CATAGTCTTC | 1.03 |
| CATATAAACA | 1.02 |
| CATATGTCGG | 1.01 |
| CATATGTGAT | 0.986 |
| CATATTAGG | 1 |
| CATATTCGGG | 1.01 |
| CATATTGAGG | 0.924 |
| CATCAAAATC | 2.03 |
| CATCAAACAT | 1.06 |
| CATCAAATGA | 1.01 |
| CATCAATTTA | 1.02 |
| CATCACCGTT | 1.01 |
| CATCACGGTG | 1.2 |
| CATCAGATGC | 1.11 |
| CATCAGCGCT | 1.09 |
| CATCAGCGTT | 1.28 |
| CATCAGTGCC | 0.985 |
| CATCATTCTT | 0.979 |
| CATCATTTTA | 0.99 |

| Sequence | switch fluorescence ratio |
| --- | --- |
| CATCCAGGAG | 1.79 |
| CATCCGGG | 1.4 |
| CATCGCACGT | 1.28 |
| CATCGCCGC | 1.12 |
| CATCGCGAGT | 1.09 |
| CATCGCGCCT | 1.11 |
| CATCGCGGGG | 1.01 |
| CATCGGCGGA | 1.07 |
| CATCGGTAT | 1.01 |
| CATCGTGGGC | 0.999 |
| CATCGTTACC | 1.09 |
| CATCTAAACG | 0.994 |
| CATCTAAGG | 1.01 |
| CATCTAGGTT | 0.988 |
| CATCTATAAA | 1.01 |
| CATCTCCAAC | 1.08 |
| CATCTGAGGT | 0.996 |
| CATCTTATTC | 1.02 |
| CATGAAATAG | 1 |
| CATGAACGTA | 1.08 |
| CATGAATAAA | 1 |
| CATGACCCAG | 0.979 |
| CATGATCCAA | 1.01 |
| CATGATGGCG | 0.976 |
| CATGATTGAG | 1.01 |

| Sequence | switch fluorescence ratio |
| --- | --- |
| CATGATTTTG | 0.996 |
| CATGCAAGA | 1.17 |
| CATGCATAAC | 2.03 |
| CATGCGAGTT | 1.04 |
| CATGCGCTCG | 1.04 |
| CATGCTAAGC | 0.984 |
| CATGGAGAAC | 1 |
| CATGGAGCCA | 1.01 |
| CATGGATGAG | 0.934 |
| CATGGCCTA | 0.994 |
| CATGGCGCTG | 0.97 |
| CATGGCGGTA | 1.06 |
| CATGGCGTCT | 0.991 |
| CATGGGAAG | 0.981 |
| CATGGGAATA | 0.985 |
| CATGGGATCG | 1.05 |
| CATGGGCACG | 0.986 |
| CATGGGTAA | 1 |
| CATGGTACGA | 1.07 |
| CATGTAAAGG | 0.967 |
| CATGTAAATT | 0.994 |
| CATGTAACGT | 1.08 |
| CATGTACCTT | 1.16 |
| CATGTAGATG | 0.971 |
| CATGTAGTCG | 0.99 |
